# Assay results published in the supplement of paper PMC8728848.
# The other results are listed elsewhere or left out.
# B1: Jacalin (Artocarpus integrifolia) (protein)
# chain: MAYSSLLSLSVLALLFSISSADTRKWFLANGINQNPIGIIEAAVGVSEDLLNLNGMEAKNDEQSGISQTVIVGPWGAKVSTSSNGKAFDDGAFTGIREINLSYNKETAIGDFQVVYDLNGSPYVGQNHKSFITGFTPVKISLDFPSEYIMEVSGYTGNVSGYVVVRSLTFKTNKKTYGPYGVTSGTPFNLPIENGLIVGFKGSIGYWLDYFSMYLSL
# Columns and labels:
# Assay in all cases: glycan array binding signal (z-score within array); higher = stronger binding
# Conditions in all cases: glycan notation: IUPAC condensed, linker removed
# [1] = target: Neu5Ac(a2-6)Gal(b1-4)GlcNAc(b1-2)Man(a1-3)[Neu5Ac(a2-6)Gal(b1-4)GlcNAc(b1-2)Man(a1-6)]Man(b1-4)GlcNAc(b1-4)GlcNAc
# Method in brief: (§1)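 The binding signal is a Z-score computed within each array and averaged over linkers. Arrays of the same protein sequence at different concentrations or buffers were also averaged together. Data originate from 3228 arrays in the Consortium for Functional Glycomics database, kept only where the protein sequence was available.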
# [2] = target: Neu5Ac(a2-6)Gal(b1-4)GlcNAc(b1-2)Man(a1-3)[Neu5Ac(a2-6)Gal(b1-4)GlcNAc(b1-2)Man(a1-6)]Man(b1-4)GlcNAc(b1-4)[Fuc(a1-6)]GlcNAc
# Method in brief: as §1
# [3] = target: Neu5Ac(a2-6)Gal(b1-4)GlcNAc(b1-2)Man(a1-6)Man(b1-4)GlcNAc(b1-4)GlcNAc
# Method in brief: as §1
# [4] = target: Neu5Ac(a2-6)Gal(b1-4)GlcNAc(b1-2)Man(a1-6)[Gal(b1-4)GlcNAc(b1-2)Man(a1-3)]Man(b1-4)GlcNAc(b1-4)GlcNAc
# Method in brief: as §1
# [5] = target: Neu5Ac(a2-6)Gal(b1-4)GlcNAc(b1-2)Man(a1-6)[GlcNAc(b1-2)Man(a1-3)]Man(b1-4)GlcNAc(b1-4)GlcNAc
# Method in brief: as §1
# [6] = target: Neu5Ac(a2-6)Gal(b1-4)GlcNAc(b1-2)Man(a1-6)[Man(a1-3)]Man(b1-4)GlcNAc(b1-4)GlcNAc
# Method in brief: as §1
# [7] = target: Neu5Ac(a2-6)Gal(b1-4)GlcNAc(b1-2)[Neu5Ac(a2-6)Gal(b1-4)GlcNAc(b1-4)]Man(a1-3)[GlcNAc(b1-4)][Neu5Ac(a2-6)Gal(b1-4)GlcNAc(b1-2)[Neu5Ac(a2-6)Gal(b1-4)GlcNAc(b1-6)]Man(a1-6)]Man(b1-4)GlcNAc(b1-4)GlcNAc
# Method in brief: as §1
# [8] = target: Neu5Ac(a2-6)Gal(b1-4)GlcNAc(b1-2)[Neu5Ac(a2-6)Gal(b1-4)GlcNAc(b1-4)]Man(a1-3)[GlcNAc(b1-4)][Neu5Ac(a2-6)Gal(b1-4)GlcNAc(b1-4)Man(a1-6)]Man(b1-4)GlcNAc(b1-4)GlcNAc
# Method in brief: as §1
# [9] = target: Neu5Ac(a2-6)Gal(b1-4)GlcNAc(b1-2)[Neu5Ac(a2-6)Gal(b1-4)GlcNAc(b1-6)]Man(a1-6)[Neu5Ac(a2-6)Gal(b1-4)GlcNAc(b1-2)Man(a1-3)][GlcNAc(b1-4)]Man(b1-4)GlcNAc(b1-4)GlcNAc
# Method in brief: as §1
# [10] = target: Neu5Ac(a2-6)Gal(b1-4)GlcNAc(b1-3)Gal(b1-3)GlcNAc
# Method in brief: as §1
# [11] = target: Neu5Ac(a2-6)Gal(b1-4)GlcNAc(b1-3)Gal(b1-4)GlcNAc
# Method in brief: as §1
# [12] = target: Neu5Ac(a2-6)Gal(b1-4)GlcNAc(b1-3)Gal(b1-4)GlcNAc(b1-2)Man(a1-3)[Neu5Ac(a2-6)Gal(b1-4)GlcNAc(b1-3)Gal(b1-4)GlcNAc(b1-2)Man(a1-6)]GalNAc
# Method in brief: as §1
# [13] = target: Neu5Ac(a2-6)Gal(b1-4)GlcNAc(b1-3)Gal(b1-4)GlcNAc(b1-3)Gal(b1-4)GlcNAc
# Method in brief: as §1
# [14] = target: Neu5Ac(a2-6)Gal(b1-4)GlcNAc(b1-3)Gal(b1-4)GlcNAc(b1-3)Gal(b1-4)GlcNAc(b1-2)Man(a1-3)[Neu5Ac(a2-6)Gal(b1-4)GlcNAc(b1-3)Gal(b1-4)GlcNAc(b1-3)Gal(b1-4)GlcNAc(b1-2)Man(a1-6)]GalNAc
# Method in brief: as §1
# [15] = target: Neu5Ac(a2-6)Gal(b1-4)GlcNAc(b1-3)Gal(b1-4)GlcNAc(b1-3)GalNAc
# Method in brief: as §1
# [16] = target: Neu5Ac(a2-6)Gal(b1-4)GlcNAc(b1-3)Gal(b1-4)GlcNAc(b1-3)[Neu5Ac(a2-6)Gal(b1-4)GlcNAc(b1-3)Gal(b1-4)GlcNAc(b1-6)]GalNAc
# Method in brief: as §1
# [17] = target: Neu5Ac(a2-6)Gal(b1-4)GlcNAc(b1-3)Gal(b1-4)GlcNAc(b1-6)[Gal(b1-3)]GalNAc
# Method in brief: as §1
# [18] = target: Neu5Ac(a2-6)Gal(b1-4)GlcNAc(b1-3)Gal(b1-4)[Fuc(a1-3)]GlcNAc(b1-3)Gal(b1-4)[Fuc(a1-3)]GlcNAc
# Method in brief: as §1
# [19] = target: Neu5Ac(a2-6)Gal(b1-4)GlcNAc(b1-3)GalNAc
# Method in brief: as §1
# [20] = target: Neu5Ac(a2-6)Gal(b1-4)GlcNAc(b1-3)[Neu5Ac(a2-6)Gal(b1-4)GlcNAc(b1-6)]GalNAc
# Method in brief: as §1
# [21] = target: Neu5Ac(a2-6)Gal(b1-4)GlcNAc(b1-6)GalNAc
# Method in brief: as §1
# [22] = target: Neu5Ac(a2-6)Gal(b1-4)GlcNAc(b1-6)[Gal(b1-3)GlcNAc(b1-3)]Gal(b1-4)Glc
# Method in brief: as §1
# [23] = target: Neu5Ac(a2-6)Gal(b1-4)GlcNAc(b1-6)[Gal(b1-3)]GalNAc
# Method in brief: as §1
# [24] = target: Neu5Ac(a2-6)Gal(b1-4)GlcNAc6S
# Method in brief: as §1
# Neu5Ac(a2-6)GalNAc = target: Neu5Ac(a2-6)GalNAc
# Method in brief: as §1
# [25] = target: Neu5Ac(a2-6)GalNAc(b1-4)GlcNAc
# Method in brief: as §1
# [26] = target: Neu5Ac(a2-6)GalNAc(b1-4)GlcNAc6S
# Method in brief: as §1
# [27] = target: Neu5Ac(a2-6)GlcNAc(b1-4)GlcNAc
# Method in brief: as §1
# [28] = target: Neu5Ac(a2-6)GlcNAc(b1-4)GlcNAc(b1-4)GlcNAc
# Method in brief: as §1
# Neu5Ac(a2-8)Neu5Ac = target: Neu5Ac(a2-8)Neu5Ac
# Method in brief: as §1
# [29] = target: Neu5Ac(a2-8)Neu5Ac(a2-3)Gal(b1-3)GalNAc(b1-4)[Neu5Ac(a2-3)]Gal(b1-4)Glc
# Method in brief: as §1
# [30] = target: Neu5Ac(a2-8)Neu5Ac(a2-3)Gal(b1-3)GalNAc(b1-4)[Neu5Ac(a2-8)Neu5Ac(a2-3)]Gal(b1-4)Glc
# Method in brief: as §1
# [31] = target: Neu5Ac(a2-8)Neu5Ac(a2-3)Gal(b1-4)Glc
# Method in brief: as §1
# [32] = target: Neu5Ac(a2-8)Neu5Ac(a2-3)Gal(b1-4)GlcNAc
# Method in brief: as §1
# [33] = target: Neu5Ac(a2-8)Neu5Ac(a2-3)[Gal(b1-3)GalNAc(b1-4)]Gal(b1-4)Glc
# Method in brief: as §1
# [34] = target: Neu5Ac(a2-8)Neu5Ac(a2-3)[GalNAc(b1-4)]Gal(b1-4)Glc
# Method in brief: as §1
# [35] = target: Neu5Ac(a2-8)Neu5Ac(a2-8)Neu5Ac
# Method in brief: as §1
# [36] = target: Neu5Ac(a2-8)Neu5Ac(a2-8)Neu5Ac(a2-3)Gal(b1-4)Glc
# Method in brief: as §1
# [37] = target: Neu5Ac(a2-8)Neu5Ac(a2-8)Neu5Ac(a2-3)[Gal(b1-3)GalNAc(b1-4)]Gal(b1-4)Glc
# Method in brief: as §1
# [38] = target: Neu5Ac(a2-8)Neu5Ac(a2-8)Neu5Ac(a2-3)[GalNAc(b1-4)]Gal(b1-4)Glc
# Method in brief: as §1
# [39] = target: Neu5Ac(a2-8)Neu5Ac(a2-8)Neu5Ac(a2-8)Neu5Ac(a2-3)[GalNAc(b1-4)]Gal(b1-4)Glc
# Method in brief: as §1
# [40] = target: Neu5Ac(a2-8)Neu5Gc(a2-3)Gal(b1-4)GlcNAc
# Method in brief: as §1
# Neu5Ac(b1-6)GalNAc = target: Neu5Ac(b1-6)GalNAc
# Method in brief: as §1
# [41] = target: Neu5Ac(b2-6)Gal(b1-4)GlcNAc
# Method in brief: as §1
# Neu5Ac(b2-6)GalNAc = target: Neu5Ac(b2-6)GalNAc
# Method in brief: as §1
binder,measurement,setting,value
B1,glycan array binding signal (z-score),[1],-0.263
same,glycan array binding signal (z-score),[2],0.151
same,glycan array binding signal (z-score),[3],-0.259
same,glycan array binding signal (z-score),[4],-0.267
same,glycan array binding signal (z-score),[5],-0.234
same,glycan array binding signal (z-score),[6],-0.111
same,glycan array binding signal (z-score),[7],-0.295
same,glycan array binding signal (z-score),[8],-0.277
same,glycan array binding signal (z-score),[9],-0.292
same,glycan array binding signal (z-score),[10],-0.291
same,glycan array binding signal (z-score),[11],-0.269
same,glycan array binding signal (z-score),[12],-0.167
same,glycan array binding signal (z-score),[13],-0.266
same,glycan array binding signal (z-score),[14],0.1
same,glycan array binding signal (z-score),[15],0.828
same,glycan array binding signal (z-score),[16],0.112
same,glycan array binding signal (z-score),[17],-0.208
same,glycan array binding signal (z-score),[18],-0.23
same,glycan array binding signal (z-score),[19],1.02
same,glycan array binding signal (z-score),[20],-0.221
same,glycan array binding signal (z-score),[21],-0.255
same,glycan array binding signal (z-score),[22],-0.271
same,glycan array binding signal (z-score),[23],-0.273
same,glycan array binding signal (z-score),[24],-0.255
same,glycan array binding signal (z-score),Neu5Ac(a2-6)GalNAc,-0.289
same,glycan array binding signal (z-score),[25],-0.275
same,glycan array binding signal (z-score),[26],-0.265
same,glycan array binding signal (z-score),[27],-0.277
same,glycan array binding signal (z-score),[28],-0.251
same,glycan array binding signal (z-score),Neu5Ac(a2-8)Neu5Ac,-0.271
same,glycan array binding signal (z-score),[29],-0.268
same,glycan array binding signal (z-score),[30],-0.257
same,glycan array binding signal (z-score),[31],-0.286
same,glycan array binding signal (z-score),[32],-0.274
same,glycan array binding signal (z-score),[33],-0.238
same,glycan array binding signal (z-score),[34],-0.293
same,glycan array binding signal (z-score),[35],-0.284
same,glycan array binding signal (z-score),[36],-0.289
same,glycan array binding signal (z-score),[37],-0.237
same,glycan array binding signal (z-score),[38],-0.231
same,glycan array binding signal (z-score),[39],-0.25
same,glycan array binding signal (z-score),[40],-0.269
same,glycan array binding signal (z-score),Neu5Ac(b1-6)GalNAc,-0.342
same,glycan array binding signal (z-score),[41],-0.261
same,glycan array binding signal (z-score),Neu5Ac(b2-6)GalNAc,-0.278
